# Laboratory results as given in the supplement of paper PMC8728848.
# This is one part of the list.
# B1: AT1G73650(15) (Arabidopsis thaliana), F4HRY1 (protein)
# chain: MGTVLDSHFLALTAIVTVIYQFIFFVITALFKFDQVTDFAGSTNFVILAVLTLVLKASWHFRQIVLTLLVVVWGLRLGIFLLMETRILQWGEDRRFDEQRGNIVRLIIFWTLQAVWVWTVSLPLTLVNASDGGGSLKPADVIGWTMETWVFGFLIEAAADQQKLSFKNSPENRGKWCDVGVWKYSRHPNYFGEMETLLWWGIFVAASPVLEGAEYLVIFGPLFLTLLLLFVSGIPLLEASADKKHGNSGAYRSYKKTTSPLILFPRGVYGNLPGWFKTVFLFEFPFYSRNLPQEGRLQNSKEKEVKDD
# Columns and labels:
# Test in all cases: glycan array binding signal (z-score within array); higher = stronger binding
# Conditions in all cases: glycan notation: IUPAC condensed, linker removed
# [1] = biological target: Gal(b1-4)GlcNAc(b1-3)Gal(b1-3)GlcNAc
# Procedure, shortened: (§1)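 Arrays were curated from the Consortium for Functional Glycomics database, 3228 in total, and kept only where the protein sequence was available. Binding is expressed as a within-array Z-score. This score was averaged across arrays of the same protein sequence at different concentrations or buffers and across linkers, and negative values can be read as non-binding.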
# [2] = biological target: Gal(b1-4)GlcNAc(b1-3)Gal(b1-4)Glc
# Procedure, shortened: as §1
# [3] = biological target: Gal(b1-4)GlcNAc(b1-3)Gal(b1-4)GlcNAc
# Procedure, shortened: as §1
# [4] = biological target: Gal(b1-4)GlcNAc(b1-3)Gal(b1-4)GlcNAc(b1-2)Man(a1-3)[Gal(b1-4)GlcNAc(b1-3)Gal(b1-4)GlcNAc(b1-2)Man(a1-6)]Man(b1-4)GlcNAc(b1-4)GlcNAc
# Procedure, shortened: as §1
# [5] = biological target: Gal(b1-4)GlcNAc(b1-3)Gal(b1-4)GlcNAc(b1-2)Man(a1-3)[Gal(b1-4)GlcNAc(b1-3)Gal(b1-4)GlcNAc(b1-2)Man(a1-6)]Man(b1-4)GlcNAc(b1-4)[Fuc(a1-6)]GlcNAc
# Procedure, shortened: as §1
# [6] = biological target: Gal(b1-4)GlcNAc(b1-3)Gal(b1-4)GlcNAc(b1-2)[Gal(b1-4)GlcNAc(b1-3)Gal(b1-4)GlcNAc(b1-6)]Man(a1-6)[Gal(b1-4)GlcNAc(b1-3)Gal(b1-4)GlcNAc(b1-2)Man(a1-3)]Man(b1-4)GlcNAc(b1-4)GlcNAc
# Procedure, shortened: as §1
# [7] = biological target: Gal(b1-4)GlcNAc(b1-3)Gal(b1-4)GlcNAc(b1-2)[Gal(b1-4)GlcNAc(b1-3)Gal(b1-4)GlcNAc(b1-6)]Man(a1-6)[Gal(b1-4)GlcNAc(b1-3)Gal(b1-4)GlcNAc(b1-2)Man(a1-3)]Man(b1-4)GlcNAc(b1-4)[Fuc(a1-6)]GlcNAc
# Procedure, shortened: as §1
# [8] = biological target: Gal(b1-4)GlcNAc(b1-3)Gal(b1-4)GlcNAc(b1-3)Gal(b1-4)GlcNAc
# Procedure, shortened: as §1
# [9] = biological target: Gal(b1-4)GlcNAc(b1-3)Gal(b1-4)GlcNAc(b1-3)Gal(b1-4)GlcNAc(b1-2)Man(a1-3)[Gal(b1-4)GlcNAc(b1-3)Gal(b1-4)GlcNAc(b1-3)Gal(b1-4)GlcNAc(b1-2)Man(a1-6)]Man(b1-4)GlcNAc(b1-4)GlcNAc
# Procedure, shortened: as §1
# [10] = biological target: Gal(b1-4)GlcNAc(b1-3)Gal(b1-4)GlcNAc(b1-3)Gal(b1-4)GlcNAc(b1-2)Man(a1-3)[Gal(b1-4)GlcNAc(b1-3)Gal(b1-4)GlcNAc(b1-3)Gal(b1-4)GlcNAc(b1-2)Man(a1-6)]Man(b1-4)GlcNAc(b1-4)[Fuc(a1-6)]GlcNAc
# Procedure, shortened: as §1
# [11] = biological target: Gal(b1-4)GlcNAc(b1-3)Gal(b1-4)GlcNAc(b1-3)Gal(b1-4)GlcNAc(b1-2)[Gal(b1-4)GlcNAc(b1-3)Gal(b1-4)GlcNAc(b1-3)Gal(b1-4)GlcNAc(b1-6)]Man(a1-6)[Gal(b1-4)GlcNAc(b1-3)Gal(b1-4)GlcNAc(b1-3)Gal(b1-4)GlcNAc(b1-2)Man(a1-3)]Man(b1-4)GlcNAc(b1-4)[Fuc(a1-6)]GlcNAc
# Procedure, shortened: as §1
# [12] = biological target: Gal(b1-4)GlcNAc(b1-3)Gal(b1-4)GlcNAc(b1-3)Gal(b1-4)GlcNAc(b1-3)Gal(b1-4)GlcNAc(b1-2)Man(a1-3)[Gal(b1-4)GlcNAc(b1-3)Gal(b1-4)GlcNAc(b1-3)Gal(b1-4)GlcNAc(b1-3)Gal(b1-4)GlcNAc(b1-2)Man(a1-6)]Man(b1-4)GlcNAc(b1-4)GlcNAc
# Procedure, shortened: as §1
# [13] = biological target: Gal(b1-4)GlcNAc(b1-3)Gal(b1-4)GlcNAc(b1-3)Gal(b1-4)GlcNAc(b1-3)Gal(b1-4)GlcNAc(b1-2)Man(a1-3)[Gal(b1-4)GlcNAc(b1-3)Gal(b1-4)GlcNAc(b1-3)Gal(b1-4)GlcNAc(b1-3)Gal(b1-4)GlcNAc(b1-2)Man(a1-6)]Man(b1-4)GlcNAc(b1-4)[Fuc(a1-6)]GlcNAc
# Procedure, shortened: as §1
# [14] = biological target: Gal(b1-4)GlcNAc(b1-3)Gal(b1-4)GlcNAc(b1-3)Gal(b1-4)GlcNAc(b1-3)Gal(b1-4)GlcNAc(b1-2)[Gal(b1-4)GlcNAc(b1-3)Gal(b1-4)GlcNAc(b1-3)Gal(b1-4)GlcNAc(b1-3)Gal(b1-4)GlcNAc(b1-6)]Man(a1-6)[Gal(b1-4)GlcNAc(b1-3)Gal(b1-4)GlcNAc(b1-3)Gal(b1-4)GlcNAc(b1-3)Gal(b1-4)GlcNAc(b1-2)Man(a1-3)]Man(b1-4)GlcNAc(b1-4)[Fuc(a1-6)]GlcNAc
# Procedure, shortened: as §1
# [15] = biological target: Gal(b1-4)GlcNAc(b1-3)Gal(b1-4)GlcNAc(b1-3)Gal(b1-4)GlcNAc(b1-3)Gal(b1-4)GlcNAc(b1-3)Gal(b1-4)GlcNAc(b1-2)Man(a1-3)[Gal(b1-4)GlcNAc(b1-3)Gal(b1-4)GlcNAc(b1-3)Gal(b1-4)GlcNAc(b1-3)Gal(b1-4)GlcNAc(b1-3)Gal(b1-4)GlcNAc(b1-2)Man(a1-6)]Man(b1-4)GlcNAc(b1-4)GlcNAc
# Procedure, shortened: as §1
# [16] = biological target: Gal(b1-4)GlcNAc(b1-3)Gal(b1-4)GlcNAc(b1-3)Gal(b1-4)GlcNAc(b1-3)Gal(b1-4)GlcNAc(b1-3)Gal(b1-4)GlcNAc(b1-2)Man(a1-3)[Gal(b1-4)GlcNAc(b1-3)Gal(b1-4)GlcNAc(b1-3)Gal(b1-4)GlcNAc(b1-3)Gal(b1-4)GlcNAc(b1-3)Gal(b1-4)GlcNAc(b1-2)Man(a1-6)]Man(b1-4)GlcNAc(b1-4)[Fuc(a1-6)]GlcNAc
# Procedure, shortened: as §1
# [17] = biological target: Gal(b1-4)GlcNAc(b1-3)Gal(b1-4)GlcNAc(b1-3)Gal(b1-4)GlcNAc(b1-3)Gal(b1-4)GlcNAc(b1-3)Gal(b1-4)GlcNAc(b1-2)[Gal(b1-4)GlcNAc(b1-3)Gal(b1-4)GlcNAc(b1-3)Gal(b1-4)GlcNAc(b1-3)Gal(b1-4)GlcNAc(b1-3)Gal(b1-4)GlcNAc(b1-6)]Man(a1-6)[Gal(b1-4)GlcNAc(b1-3)Gal(b1-4)GlcNAc(b1-3)Gal(b1-4)GlcNAc(b1-3)Gal(b1-4)GlcNAc(b1-3)Gal(b1-4)GlcNAc(b1-2)Man(a1-3)]Man(b1-4)GlcNAc(b1-4)[Fuc(a1-6)]GlcNAc
# Procedure, shortened: as §1
# [18] = biological target: Gal(b1-4)GlcNAc(b1-3)Gal(b1-4)GlcNAc(b1-3)Gal(b1-4)GlcNAc(b1-3)Gal(b1-4)GlcNAc(b1-3)Gal(b1-4)GlcNAc(b1-3)Gal(b1-4)GlcNAc(b1-2)Man(a1-3)[Gal(b1-4)GlcNAc(b1-3)Gal(b1-4)GlcNAc(b1-3)Gal(b1-4)GlcNAc(b1-3)Gal(b1-4)GlcNAc(b1-3)Gal(b1-4)GlcNAc(b1-3)Gal(b1-4)GlcNAc(b1-2)Man(a1-6)]Man(b1-4)GlcNAc(b1-4)GlcNAc
# Procedure, shortened: as §1
# [19] = biological target: Gal(b1-4)GlcNAc(b1-3)Gal(b1-4)GlcNAc(b1-3)GalNAc
# Procedure, shortened: as §1
binder,measurement,setting,value
B1,glycan array binding signal (z-score),[1],-0.512
same,glycan array binding signal (z-score),[2],1.93
same,glycan array binding signal (z-score),[3],1.92
same,glycan array binding signal (z-score),[4],-0.01
same,glycan array binding signal (z-score),[5],-0.555
same,glycan array binding signal (z-score),[6],-0.267
same,glycan array binding signal (z-score),[7],0.506
same,glycan array binding signal (z-score),[8],-0.503
same,glycan array binding signal (z-score),[9],-0.044
same,glycan array binding signal (z-score),[10],-0.186
same,glycan array binding signal (z-score),[11],0.335
same,glycan array binding signal (z-score),[12],-0.376
same,glycan array binding signal (z-score),[13],1.83
same,glycan array binding signal (z-score),[14],-0.173
same,glycan array binding signal (z-score),[15],-0.096
same,glycan array binding signal (z-score),[16],0.369
same,glycan array binding signal (z-score),[17],-0.381
same,glycan array binding signal (z-score),[18],-0.416
same,glycan array binding signal (z-score),[19],-0.447
